# From paper PMC5700166
# This is a selection; strong and weak results do not stand in their true shares. The list includes weakly bound sequences.
# Assays:
# Assay in all cases: protein-binding microarray (PBM)
# Settings in all cases: PBM: ~300 nM protein, 6 mM HEPES pH 7.8, 80 mM KCl, 0.5 mM EDTA, 0.5 mM EGTA, 6% glycerol, 35 ng/ul poly-dIdC, 1% milk, 1 h, room temperature; Ap Aiptasia and Nv Nematostella (sea anemones) / Co Capsaspora / Aq Amphimedon (sponge) / Dm Drosophila / Hu human; RHD is the Rel homology domain; high values mean tight binding; most listed sequences are background and not binding sites; double strand, one strand shown
# GST-Co-NF-kB = target: T1, GST-Co-NF-kB (UniProt F1ARL5)
# T1 sequence: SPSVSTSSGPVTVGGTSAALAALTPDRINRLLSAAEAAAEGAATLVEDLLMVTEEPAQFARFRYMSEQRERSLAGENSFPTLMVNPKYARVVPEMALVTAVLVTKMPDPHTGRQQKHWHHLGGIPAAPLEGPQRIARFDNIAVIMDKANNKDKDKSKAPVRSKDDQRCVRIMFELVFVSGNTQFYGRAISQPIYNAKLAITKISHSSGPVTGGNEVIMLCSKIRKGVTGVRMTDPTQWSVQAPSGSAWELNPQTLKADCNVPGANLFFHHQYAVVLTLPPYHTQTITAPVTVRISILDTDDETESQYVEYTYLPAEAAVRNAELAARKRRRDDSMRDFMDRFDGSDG
# GST-Dm-Relish = target: T2, GST-Dm-Relish (UniProt Q94527)
# T2 sequence: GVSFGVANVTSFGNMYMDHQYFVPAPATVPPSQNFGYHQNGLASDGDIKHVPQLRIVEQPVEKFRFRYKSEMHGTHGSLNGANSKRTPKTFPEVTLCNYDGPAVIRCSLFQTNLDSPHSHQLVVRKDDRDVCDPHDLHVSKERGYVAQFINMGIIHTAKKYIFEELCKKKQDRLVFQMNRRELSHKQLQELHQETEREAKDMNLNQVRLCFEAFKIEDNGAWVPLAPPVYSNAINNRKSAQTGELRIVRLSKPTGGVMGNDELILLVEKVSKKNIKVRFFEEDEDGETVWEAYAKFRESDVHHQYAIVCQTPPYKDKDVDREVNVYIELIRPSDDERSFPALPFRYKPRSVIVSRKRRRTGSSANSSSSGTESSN
# GST-Aq-NF-kB = target: T3, GST-Aq-NF-kB (UniProt A9Y5G7)
# T3 sequence: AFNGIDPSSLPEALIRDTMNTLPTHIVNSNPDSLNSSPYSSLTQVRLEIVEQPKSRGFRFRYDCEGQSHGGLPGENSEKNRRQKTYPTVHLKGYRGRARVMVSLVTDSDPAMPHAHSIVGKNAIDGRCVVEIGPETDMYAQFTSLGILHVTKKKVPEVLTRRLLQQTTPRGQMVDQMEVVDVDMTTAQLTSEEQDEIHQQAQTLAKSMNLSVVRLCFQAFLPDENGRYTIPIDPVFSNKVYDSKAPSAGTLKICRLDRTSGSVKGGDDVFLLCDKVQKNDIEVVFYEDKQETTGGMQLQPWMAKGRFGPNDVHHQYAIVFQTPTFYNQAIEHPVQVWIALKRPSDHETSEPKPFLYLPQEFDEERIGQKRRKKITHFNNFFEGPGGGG
Sequence,binding signal (GST-Co-NF-kB) [z-score],binding signal (GST-Dm-Relish) [z-score],binding signal (GST-Aq-NF-kB) [z-score]
CCGATTAACATCAAGGGGGGTGCTGATGTTAATCGGGTCTTGATTCGCTTGACGCTGCTG,3.26,4.11,4.32
CCGATTAACATCAGGGGGGTACATGATGTTAATCGGGTCTTGATTCGCTTGACGCTGCTG,5.22,4.13,3.31
CCGATTAACATCAGGGTTTCCCATGATGTTAATCGGGTCTTGATTCGCTTGACGCTGCTG,–,8.13,4.6
CCGATTAACATCAAGGGGAATACTGATGTTAATCGGGTCTTGATTCGCTTGACGCTGCTG,6.16,6.38,6.62
CCGATTAACATCAAAATTCCCTCTGATGTTAATCGGGTCTTGATTCGCTTGACGCTGCTG,3.2,5.36,6.5
CCGATTAACATCAAAAATTCCCGTGATGTTAATCGGGTCTTGATTCGCTTGACGCTGCTG,6.08,7.67,7.49
CCGATTAACATCAGCATCCCCCCTGATGTTAATCGGGTCTTGATTCGCTTGACGCTGCTG,4.85,4.52,4.67
CCGATTAACATCACCAACCCCCCTGATGTTAATCGGGTCTTGATTCGCTTGACGCTGCTG,3.02,5.37,3.88
CCGATTAACATCAACATGGGAAATGATGTTAATCGGGTCTTGATTCGCTTGACGCTGCTG,1.82,0.0756,1.66
CCGATTAACATCACATTTTCCCATGATGTTAATCGGGTCTTGATTCGCTTGACGCTGCTG,3.98,1.33,2.13
CCGATTAACATCAAGGATCCCCCTGATGTTAATCGGGTCTTGATTCGCTTGACGCTGCTG,5.03,8.82,6.4
CCGATTAACATCAATCCCCCCCGTGATGTTAATCGGGTCTTGATTCGCTTGACGCTGCTG,–,6.77,5.33
CCGATTAACATCAATAGTACCGATGATGTTAATCGGGTCTTGATTCGCTTGACGCTGCTG,-0.98,0.483,0.437
CCGATTAACATCAGGGAAGACGTTGATGTTAATCGGGTCTTGATTCGCTTGACGCTGCTG,–,0.824,1.11
CCGATTAACATCAAAATATCCCCTGATGTTAATCGGGTCTTGATTCGCTTGACGCTGCTG,5.38,8.53,7.25
CCGATTAACATCAAGAAAATCCCTGATGTTAATCGGGTCTTGATTCGCTTGACGCTGCTG,2.27,6.64,5.58
CCGATTAACATCAGGGGGGATAATGATGTTAATCGGGTCTTGATTCGCTTGACGCTGCTG,–,4.67,4.72
CCGATTAACATCAGGGGGGGGGATGATGTTAATCGGGTCTTGATTCGCTTGACGCTGCTG,7.03,5.78,5.02
CCGATTAACATCAAAAACACCCCTGATGTTAATCGGGTCTTGATTCGCTTGACGCTGCTG,3.98,5.77,4.95
CCGATTAACATCAGGAGATCCCCTGATGTTAATCGGGTCTTGATTCGCTTGACGCTGCTG,2.55,8.66,8.6
CCGATTAACATCAGGTAATCCCATGATGTTAATCGGGTCTTGATTCGCTTGACGCTGCTG,0.665,6.13,3.49
CCGATTAACATCAGGGGGATGGATGATGTTAATCGGGTCTTGATTCGCTTGACGCTGCTG,3.52,2.24,3.5
CCGATTAACATCATGTACGGGAATGATGTTAATCGGGTCTTGATTCGCTTGACGCTGCTG,–,0.678,3.27
CCGATTAACATCAGGGTAAAACCTGATGTTAATCGGGTCTTGATTCGCTTGACGCTGCTG,–,3.45,6.02
CCGATTAACATCAAAAATCTCCCTGATGTTAATCGGGTCTTGATTCGCTTGACGCTGCTG,–,2.94,6.14
CCGATTAACATCAGGGGTTTCTATGATGTTAATCGGGTCTTGATTCGCTTGACGCTGCTG,–,5.29,4.5
CCGATTAACATCAGGGTGTTTTATGATGTTAATCGGGTCTTGATTCGCTTGACGCTGCTG,1.55,3.11,4.69
